Read-outs that look alike come from different tables or passages of the source.
What was measured:
AUC [1] = molecular target: the molecule itself; test: AUC
AUC [2] = molecular target: the molecule itself; test: AUC; remark: listed apart in the source

B1: translation elongation factor eEF1Bγ, full-length human (natural protein)
chain: not shown
Question: With B1 as the protein, how does the “stoichiometry N” value (AUC [1]) read?
Answer: 4

Question: And the “stoichiometry N” value (AUC [2])?
Answer: 2

Source: PMC9458455 (Nucleic Acids Research, 2022)
